Source: PubChem BioAssay AID485297 (National Center for Advancing Translational Sciences (NCATS), 2010)
In all, about 320,000 compounds went through this assay and about 9,100 (2.8%) were called active. Inconclusive means that the source gave no clear call. Such entries were picked first, then a sample of the others. The call rests on the fitted dose curve; in most records, active means well fitted activation curve with a large enough effect; inconclusive means small, poorly fitted or top-dose-only effect; inactive means no such curve, though single readings can be large or run the other way. Potencies of inconclusive entries are left out as doubtful fits.

Experiment: qHTS Assay for Rab9 Promoter Activators; further: nearly all actives have a fitted effect of over 60% in size; on activation, negative = inhibition: % of control where 0% means no effect
Conditions: Huh7 Rab9 promoter-luciferase reporter, luminescence, 24 h; series mostly up to 9.22 µM; activation, negative = inhibition: at the top concentration
Procedure, shortened: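 Promoter activation is measured as luciferase luminescence in Huh7 cells stably transfected with a Rab9 promoter–luciferase construct, following 24 h compound exposure at 37 °C and 10 min reagent incubation at ambient temperature.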
Potency means the concentration at half of the fitted maximal effect; tags describe the fitted curve by direction and shape.

Compound | Potency | activation, negative = inhibition
C/C(=N\NC(=O)c1nc2ccccn2c1C)c1ccco1 | active: 2.51 µM | 
COc1ccc(CC(=O)Nc2ccc(S(=O)(=O)Nc3nccs3)cc2)cc1 |  | inactive: 1.03%
Cc1ccc2oc(-c3ccco3)cc(=O)c2c1 | active: 2.82 µM | 
Fc1ccc(-c2csc(-c3cccnc3)n2)cc1F | inconclusive [activator, single point] | 
COc1ccc(N=Nc2c(N)n[nH]c2N)cc1 | inconclusive [activator, partial curve] | 
Cn1c(Cc2nc(-c3cnccn3)no2)nnc1SCC(=O)Nc1ccccc1 |  | inactive: -3.11%
Cc1sc2c(c1C)CN(C(C)(C)C)CN2C(=O)c1ccccc1 | inconclusive [activator, single point] | 
O=C(C(=O)N1CCN(C(=O)c2ccco2)CC1)c1c[nH]c2ccccc12 | inconclusive [activator, single point] | 
O=C(Nc1ccc2c(c1)OCO2)c1cc(-c2cccnc2)nc2ccccc12 |  | inactive: 20.9%
O=C(CNC(=O)c1cccs1)N/N=C/c1ccccc1[N+](=O)[O-] | inconclusive [activator, partial curve] | 
CCOc1ccc(/C=N/NC(=O)c2ccc(Cn3cc(Br)cn3)o2)cc1 |  | inactive: 2.04%
CCOC(=O)C1(Cc2cccc(OC)c2)CCCN(C(=O)c2ccc(OC)o2)C1 (centres undefined) | active: 2.51 µM | 
CC(=O)Nc1nc(-c2ccc3c(c2)CCO3)cs1 | inconclusive [activator, single point] | 
Cc1cccc(NC(=O)c2cc3cc([N+](=O)[O-])ccc3s2)n1 | inconclusive [activator, single point] | 
COC(=O)c1ccc(COc2ccc3c(C)c(C)c(=O)oc3c2C)o1 | inconclusive [activator, partial curve] | 
CN(C)CCN(C(=O)c1cccs1)c1nc2cc3c(cc2s1)OCCO3 | inconclusive [activator, partial curve] | 
COCCn1c(C)cc(C(=O)COC(=O)c2ccc(Br)o2)c1C | inconclusive [activator, partial curve, poor fit] | 
Cn1c(=NC(=O)C2CCCCC2)sc2cc([N+](=O)[O-])ccc21 | inconclusive [activator, single point] | 
Cc1ccc(N/C=C2\CCCCC2=O)nc1 | inconclusive [activator, single point] | 
COc1ccc(-n2nc(C(=O)NCC(=O)N3CCN(c4ccccc4F)CC3)c3ccccc3c2=O)cc1 | inconclusive [activator, single point] | 
COc1cccc(/C=N/N2CCOCC2)c1O | inconclusive [activator, partial curve] | 
O=C(/C=C/Nc1ccccc1O)c1ccco1 | inconclusive [activator, single point] | 
CCCCc1ccc(S(=O)(=O)NCCc2ccncc2)cc1 |  | inactive: -10.1%
CCCCCCn1cnc2c(oc3nc4c(cc32)CCCC4)c1=O | active: 3.16 µM | 
O=C(Nc1ccc([N+](=O)[O-])cc1)N1CCc2ccccc2C1 | inconclusive [activator, single point] | 

Compound | Potency | activation, negative = inhibition
CCn1nccc1C(=O)Nc1ccc(C)c(C)c1 | inconclusive [activator, partial curve] | 
COc1ccc(-c2cc(C(=O)Nc3ccc(OC)cc3OC)no2)cc1 |  | inactive: 1.78%
Cc1c(C(=O)N2CCN(C(c3ccccc3)c3ccccc3)CC2)oc2ccccc12 |  | inactive: -2.01%
C/C(=N\NC(=O)c1ccc(Br)cc1)c1cccnc1 | inconclusive [activator, partial curve] | 
N/C(=N\OC(=O)c1ccc(Br)o1)c1cccnc1 | inconclusive [activator, partial curve] | 
CC(NC(=O)CCn1nc(-c2ccc(Cl)cc2)ccc1=O)c1ccccc1 (centres undefined) |  | inactive: -5.95%
CCOC(=O)/C=C/COc1ccccc1[N+](=O)[O-] | inconclusive [activator, single point] | 
COC(=O)c1c(-c2ccc(OC)cc2)sc2cc3c(cc12)OCO3 |  | inactive: 0.925%
COc1ccc(C(=O)Nc2ccc3cn[nH]c3c2)c(OC)c1 | inconclusive [activator, partial curve] | 
CC(C)COC(=O)n1c(SCC(=O)N(C)C)nc2ccccc21 | inconclusive [activator, partial curve, poor fit] | 
O=C(N/N=C/c1ccccc1C(F)(F)F)c1ccc(O)cc1 | inconclusive [activator, single point] | 
O=C(Nc1nc2c(F)cccc2s1)c1ccc([N+](=O)[O-])o1 | inconclusive [activator, partial curve] | 
Cc1cc(/C=C2\C(=N)N3N=CSC3=NC2=O)c(C)n1Cc1ccccc1 | inconclusive [activator, partial curve] | 
C=CCn1c(C)nnc1SCC(=O)Nc1nccs1 | active: 0.0891 µM | 
O=C(Cc1c(F)cccc1Cl)Nc1ncc([N+](=O)[O-])s1 | inconclusive [activator, partial curve] | 
COc1ccccc1-c1nnc(SCC(=O)Nc2ccccc2)o1 | inconclusive [activator, partial curve] | 
CC(C)=CC(=O)Nc1nnc(-c2ccccc2C)s1 | inconclusive [activator, single point] | 
Cc1ccc(/C=N/Nc2ncc(Cl)cc2Cl)s1 | inconclusive [activator, single point] | 
Cc1cccc(C(=O)N2CCc3c([nH]c4ccccc34)C2CC(C)C)n1 (centres undefined) | inconclusive [activator, partial curve] | 
CN(C)C(=O)COC(=O)c1ccccc1Nc1ccc(SC(F)F)cc1 | inconclusive [activator, partial curve] | 
O=c1cc(-c2ccccc2)nc2nc(-c3ccccc3)[nH]n12 | inconclusive [activator, single point] | 
Cc1cc(/C=N\NC(=O)c2cccs2)c(C)n1-c1ccc2ncccc2c1 | active: 1.78 µM | 
Cn1c(-c2ccc3c(c2)OCO3)cnc1NCc1ccccc1Cl | inconclusive [activator, partial curve] | 
COc1ccc(NC(=O)c2cccc([N+](=O)[O-])c2)cc1 | inconclusive [activator, partial curve, poor fit] | 
Cc1ccc(N2CC(C(=O)N3CCN(Cc4ccc5c(c4)OCO5)CC3)CC2=O)cc1 (centres undefined) |  | inactive: -3.39%

Compound | Potency | activation, negative = inhibition
CCOC(=O)c1ccc(Nc2ccc([N+](=O)[O-])cn2)cc1 | inconclusive [activator, partial curve] | 
CCOc1ccc2cc(/C=C/C(=O)c3ccco3)c(Cl)nc2c1 | inconclusive [activator, single point] | 
Cc1cccc(-c2nc(C#N)c(NCc3ccco3)o2)c1 | inconclusive [activator, partial curve] | 
CCOC(=O)c1sc2ccc(S(=O)(=O)N3CC(C)CC(C)C3)cc2c1N (centres undefined) |  | inactive: -10.9%
O=C(O)c1ccc(N/N=C2/CCCc3ccccc32)cc1 | active: 2.51 µM | 
O=[N+]([O-])c1cccc(-c2nc(-c3ccncc3)no2)c1 | inconclusive [activator, partial curve] | 
CCN(Cc1ccncc1)C(=O)c1ccc2c(c1)S(=O)(=O)c1ccccc1C2=O |  | inactive: -0.152%
Cn1cc(C(=O)C(=O)N2CCc3ccccc32)c2ccccc21 | active: 2.82 µM | 
O=C(O)c1ccccc1S(=O)(=O)CC(=O)N1CCCCC1 |  | inactive: -1.57%
O=C(/C=C/c1ccccc1)Nc1sc2c(c1C(=O)O)CCC2 | inconclusive [activator, single point] | 
C/C(=N\Nc1ccc(Cl)c(C(=O)O)c1)c1cccc([N+](=O)[O-])c1 | inconclusive [activator, single point] | 
Cc1nc(-c2ccccc2)sc1C(=O)NN |  | inactive: -9.74%
O=C(N/N=C/c1cc(Br)cs1)c1ccc2c(c1)OCCO2 | inconclusive [activator, full curve] | 
CCn1c(COc2ccc(OC)cc2)nc2ccccc21 | inconclusive [activator, partial curve] | 
COc1ccc(NC(=O)c2cc(-c3ccc(C)o3)nc3ccccc23)cc1OC | inconclusive [activator, single point] | 
S=C(c1ccc(-c2ccccc2Cl)o1)N1CCOCC1 | inconclusive [activator, partial curve] | 
CCOc1ccc(OCc2ccc(C(=O)Nc3cccnc3)o2)cc1 | inconclusive [activator, partial curve] | 
CCN(CC)c1ccc(C=Nc2ccc(C)cc2C)c(O)c1 | inconclusive [activator, partial curve] | 
COc1ccc(/C=N\NC(=O)c2cccc(Br)c2)c(OC)c1 |  | inactive: 1.43%
O=C(Cc1ccccc1[N+](=O)[O-])NCc1ccccc1Cl | active: 2.82 µM | 
Cc1cccc(C)c1N1CCN(c2cc(Cl)nc(N)n2)CC1 |  | inactive: -0.39%
C/C(=N\NC(=O)c1nn(C)c(C)c1Br)c1cccc(NC(=O)c2ccc(F)cc2)c1 | inconclusive [activator, single point] | 
Cc1nn(-c2ccccc2)c(Cl)c1/C=N/O |  | inactive: 0.192%
Cc1cc(/C=C2/SC(=O)N(CC(=O)OC(C)C)C2=O)c(C)n1C | inconclusive [activator, partial curve] | 
